Test results taken from paper PMC4336329 (PLoS ONE, 2015).
Hit rate of the full screen: of about 310,000 compounds, about 14,000 (4.5%) showed an effect of 50% or more. Effects have a minus sign here. The list shows a part of the results.

target: human ether-à-go-go-related gene (hERG) potassium channel (human, UniProt Q12809); assay: primary screen, population patch clamp on CHO cells stably expressing hERG
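Further: peak tail current of the secondary pulse compared with the same well before compound.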

human ether-à-go-go-related gene (hERG) potassium channel, sequence (Q12809 whole entry, looked up): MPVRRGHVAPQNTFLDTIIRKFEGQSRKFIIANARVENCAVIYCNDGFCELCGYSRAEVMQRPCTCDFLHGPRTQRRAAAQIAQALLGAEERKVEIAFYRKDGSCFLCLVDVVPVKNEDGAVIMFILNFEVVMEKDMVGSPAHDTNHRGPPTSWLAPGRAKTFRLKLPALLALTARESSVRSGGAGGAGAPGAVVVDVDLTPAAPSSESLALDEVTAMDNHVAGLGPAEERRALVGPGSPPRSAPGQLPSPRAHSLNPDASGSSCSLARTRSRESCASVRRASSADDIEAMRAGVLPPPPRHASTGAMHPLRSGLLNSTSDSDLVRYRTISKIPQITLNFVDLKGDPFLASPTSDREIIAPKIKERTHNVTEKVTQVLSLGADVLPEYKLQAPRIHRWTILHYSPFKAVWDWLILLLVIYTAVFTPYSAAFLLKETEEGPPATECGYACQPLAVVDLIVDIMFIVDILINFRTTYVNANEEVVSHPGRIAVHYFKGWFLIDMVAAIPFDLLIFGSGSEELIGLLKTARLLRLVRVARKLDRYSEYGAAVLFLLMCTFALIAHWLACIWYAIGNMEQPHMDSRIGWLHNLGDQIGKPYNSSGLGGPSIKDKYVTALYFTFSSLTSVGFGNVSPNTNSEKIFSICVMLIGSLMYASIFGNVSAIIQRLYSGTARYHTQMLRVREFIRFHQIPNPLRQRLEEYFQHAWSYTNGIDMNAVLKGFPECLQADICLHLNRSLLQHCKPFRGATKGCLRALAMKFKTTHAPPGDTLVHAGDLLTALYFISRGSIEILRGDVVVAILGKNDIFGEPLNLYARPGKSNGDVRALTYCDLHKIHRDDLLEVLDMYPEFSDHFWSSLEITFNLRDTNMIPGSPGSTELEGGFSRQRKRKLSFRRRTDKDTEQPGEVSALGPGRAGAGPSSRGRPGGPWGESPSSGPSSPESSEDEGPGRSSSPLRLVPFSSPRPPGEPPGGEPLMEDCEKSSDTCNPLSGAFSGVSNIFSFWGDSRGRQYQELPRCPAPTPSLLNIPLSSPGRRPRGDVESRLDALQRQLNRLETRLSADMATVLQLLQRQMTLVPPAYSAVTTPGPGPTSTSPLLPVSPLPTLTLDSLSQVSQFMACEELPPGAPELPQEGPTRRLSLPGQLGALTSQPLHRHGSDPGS

SMILES	hERG current change (%, negative = inhibition) at 10uM [%]
O=C(Nc1ccc(N2CCN(Cc3ccccc3)CC2)cc1)c1cccnc1	-14.4
COc1ccc(CC(=O)N2CCN(c3ccccc3OC)CC2)cc1	13.2
O=C(O)c1cccc(N/N=C/c2cn(-c3ccccc3)nc2-c2cccs2)c1	8.16
COc1ccccc1/C=C/CN1CCCC(CCC(=O)NCc2ccccc2F)C1 (stereo not shown)	-65.7
COc1ccccc1CNC(=O)c1ccc(SC)cc1OC	-32.7
COc1ccc(C)cc1NC(=O)CN1c2cccc3cccc(c23)S1(=O)=O	1.3
N/C(CC1CC1(Cl)Cl)=N\OC(=O)c1ccccc1 (stereo not shown)	3.68
CCCC(=O)Nc1nn(CC(C)C)c2nc3cc(C)ccc3cc12	19.4
Cc1ccc(C(=O)N2CCCC(C(=O)c3cc(F)ccc3F)C2)s1 (stereo not shown)	-19.4
CCOc1ccc(N2Cc3ncccc3C2=O)cc1	-7.23
NNC(=O)c1[nH]c2ccc(Cl)cc2c1-c1ccccc1	6.15
Cc1ccc(NC(=O)c2ccc(Nc3c([N+](=O)[O-])cc([N+](=O)[O-])cc3[N+](=O)[O-])cc2)cc1	1.02
COc1ccc(C(=O)NNC(=O)c2ccc3ccccc3n2)cc1	-42.9
COc1cc(-c2nnc(COC(=O)c3cc(C)nc4ccc(C)cc34)o2)cc(OC)c1OC	-11.1
COc1ccc(Cl)cc1C(=O)NCCN1CCOCC1	-2.2
CCSc1ncc(Cl)c(C(=O)Nc2ccccc2)n1	-23.9
COc1ccc(CCNC(=O)CN(CCc2ccccc2)S(C)(=O)=O)cc1OC	13.9
Cc1cc(=S)cc(C)n1CCCO	8.18
Cc1ccc(OCC(=O)Nc2cc(S(=O)(=O)N3CCCCC3)ccc2C)c([N+](=O)[O-])n1	-7.58
CCC(c1nnc(SCCNCCO)n1CCN1CCOCC1)N(C)C.O=C(O)C(=O)O (stereo not shown)	21
COc1ccc(C(=O)O/N=C2\CCS(=O)(=O)c3sccc32)cc1	8.4
Cc1ccc(C)c(S(=O)(=O)N2CCCC2CNC(=O)C(=O)NCc2ccco2)c1 (stereo not shown)	-54.2
CC12CC(O)C3c4ccc(O)cc4CCC3C1CC/C2=N\O (stereo not shown)	3.28

SMILES	hERG current change (%, negative = inhibition) at 10uM [%]
CCOC(=O)c1[nH]c2ccc(C)cc2c1N	10.9
O=C(O)c1ccccc1/C=N/NC(=O)c1cc(-c2ccco2)nc2ccccc12	9.43
CN(Cc1ccccc1)C(=O)CSc1nc2ccccc2[nH]1	6.53
O=C1C2C3C=CC(CC3)C2C(=O)N1/N=C/c1ccc(O)c(O)c1 (stereo not shown)	-30.7
COC(=O)CSC1=C(C#N)C(c2cccc(OC)c2)CC(=O)N1 (stereo not shown)	5.43
CCN1C(=O)OC2(CCCCC2)C1(C)O (stereo not shown)	15.4
CCN(CC)CCSc1nc(O)c(-c2ccccc2)c(=O)n1-c1ccccc1.Cl	12.1
CCOC(=O)c1c(C)nsc1NC(=O)c1ccco1	-4.79
Cc1ccc(NC(=O)c2cc3ccccc3o2)cc1Cl	19.7
COc1ccc(-c2nn(-c3ccccc3)cc2C(=O)Nc2nc(CC(C)=O)ns2)cc1	17.4
CN1C(=O)CSC1=NCC12CC3CC(CC(C3)C1)C2	-19.6
Cn1nnnc1SCC(=O)NCCCc1ccccc1	-10.5
COc1ccc2ccccc2c1CNCc1ccccn1.Cl	-51.8
CCc1nnc(NC(=O)CCC(=O)N2CCN(Cc3ccc(C)cc3C)CC2)s1	-28.2
O=C(COc1ccccc1[N+](=O)[O-])Nc1cccc(S(=O)(=O)NC2=NCCCCC2)c1	12.6
CCOC(=O)c1c(NC(=O)c2nn(CC)cc2Br)sc2c1CCCCC2	8.6
COc1ccccc1NC(=O)CCC(=O)N(Cc1ccc(OC)c(OC)c1)c1nccs1	14.8
CCc1c(C)sc(NC(=O)c2ccc(Br)o2)c1C(=O)OC	25.3
O=C(Cc1ccccc1)Nc1ccccc1C(=O)Nc1ccccc1	-8.32
Cc1cc(C)n(C(=O)Cc2cn3ccsc3n2)n1	8.89
Cc1ccc(-c2nn(CCC(=O)O)cc2CCC(=O)O)cc1	5.78
O=C(c1ccco1)N1CCN(C(=S)Nc2cc(F)cc(F)c2)CC1	-16.5
Cc1ccc(NC(=S)NC(=O)c2ccc(-c3ccccc3)cc2)c(C)c1	5.77
